Assay results reported in PubChem BioAssay AID686970 (National Center for Advancing Translational Sciences (NCATS), 2013).
Hit rate of the full screen: of about 360,000 compounds, about 6,000 (1.7%) were called active. Not shown: some 8% with an inconclusive outcome. Calls follow the shape of the dose curve; as a rule, active = well fitted cell-killing curve with a large enough effect; inconclusive = small, poorly fitted or top-dose-only effect, or effect the other way; inactive = flat fitted curve, though single readings scatter. This is a selection; strong and weak results do not stand in their true shares.

Experiment: qHTS for induction of synthetic lethality in tumor cells producing 2HG: qHTS for the HT-1080-NT fibrosarcoma cell line;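 also: NT is the 2HG producing partner of a matched IDH1 knockdown line; nearly all actives have a fitted effect of over 55% in size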;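 as to activity, negative = less viability: 0% = DMSO-treated cells and -100% = media-only wells without cells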
Details: HT-1080-NT fibrosarcoma viability, CellTiter-Glo ATP luminescence, 48 h; series mostly up to 46.1 µM; activity, negative = less viability: at the top concentration
Procedure, shortened: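 HT-1080-NT fibrosarcoma cells (2HG-overproducing), 750 cells/well in RPMI with 5% FBS, dosed after 2 h and incubated 48 h at 37C. CellTiter-Glo luminescence normalized to DMSO and no-cell wells; concentration-response curves fitted and classed.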
Potency is read from the fitted curve at half-maximal effect.

Compound	activity, negative = less viability	Potency
CCCCCCN1C[C@@H](n2cc(C3CC3)nn2)[C@H](O)C[C@@H]1c1ccc(C)cc1	inactive: -27.6%	
OCC[C@@H]1C[C@H](O)[C@@H](O)[C@]2(Cc3ccccc3O2)O1	inactive: 9.35%	
C=CC1=C(C(=O)O)N2C(=O)[C@@H](NC(=O)/C(=N\OCC(=O)O)c3csc(N)n3)[C@H]2SC1	inactive: 6.56%	
C=CCc1ccccc1OCC(O)CN1CCN(c2ccccc2OC)CC1 (configuration not stated)	inactive: -27.4%	
CC(=O)OCC(=O)C1(O)CCC2C3CCC4=CC(=O)C=CC4(C)C3C(=O)CC21C (configuration not stated)	inactive: 1.94%	
CCOC(=O)[C@@H]1[C@H]2COc3cc(OC)ccc3[C@@H]2N2C(=O)N(c3cccc(C)c3)C(=O)[C@@]12C	inactive: 3.53%	
Oc1c(C=C2N=c3ccccc3=N2)sc(=S)n1-c1ccc(F)cc1	inactive: 15.3%	
Cc1cc(C)nc(NC(N)=NCCc2ccccc2)n1		active: 10.3 µM
COc1ccc([C@@]2(C(C)C)ON(c3ccccc3C(F)(F)F)C2=O)cc1	inactive: -14.2%	
O[C@@H]1C[C@H](c2ccc(Cl)cc2)N(Cc2cccs2)C[C@H]1n1cc(C2CC2)nn1	inactive: 9.03%	
Cc1ccc(N/N=C(\Cc2nc3ccccc3[nH]2)c2ccccc2)cc1		active: 1.3 µM
CC1=CC(C)(C)Nc2ccccc21	inactive: -16.8%	
COc1ccc(C2CC(=O)c3c(O)cc(O)cc3O2)cc1O (configuration not stated)	inactive: 0%	
O=C(Nc1ccccc1)/C(=C/c1ccccc1)NC(=O)c1ccco1	inactive: -22.2%	
Nc1ncnc2c1ncn2C1O[C@H](CO)[C@@H](O)[C@@H]1O (some centres not stated)	inactive: -1.8%	
O=C(O)CC/C(=C\c1cccc(NC(=O)c2ccccc2Cl)c1)c1nc2ccccc2s1	inactive: -5.49%	
CC1=NN(c2nc3ccccc3[nH]2)C(=O)/C1=C/N(C)C		active: 20.6 µM
OCC[C@H]1C[C@@H](O)[C@H](O)[C@]2(CCCc3ccccc3O2)O1	inactive: 14.7%	
N#C/C(=C/c1cccs1)c1nc2ccccc2[nH]1	inactive: -21.9%	
O=C(Nc1ccc(F)cc1)c1nn(-c2ccccc2)c(=O)cc1Cl		active: 18.4 µM
CC(=C/c1ccco1)/C=N/N1CCN(c2ccccc2)CC1	inactive: 1.55%	
CCN(CC)CCn1nc2c3c(cccc3c1=O)-c1ccccc1-2		active: 14.6 µM
O=C1C(Cc2ccccc2)Nc2ncnc(N3CCCCC3)c2N1Cc1ccc(Br)cc1 (configuration not stated)	inactive: -12%	

Compound	activity, negative = less viability	Potency
O=C(Nc1nc2ccccc2s1)c1cnccn1		active: 2.82 µM
CC(=O)C[C@H](O)CC(=O)[C@H]1OC(=O)CCCCCCc2ccccc21	inactive: 5.02%	
CCOC(=O)[C@@H]1[C@H]2COc3ccccc3[C@@H]2N2C(=O)N(c3ccc(Cl)cc3)C(=O)[C@]12C	inactive: -14.7%	
COc1ccccc1N1CCN(CC(O)COc2cccc3ccccc23)CC1 (configuration not stated)	inactive: -23.1%	
O=C1NC[C@H](CCCCN2C[C@H](Cc3ccc(O)cc3)N(CCC3CCCCC3)C(=O)C2=O)N(CC2CCCCC2)C1=O	inactive: 17.1%	
O=C(C1=C[C@H](c2ccc(Br)cc2)C[C@H](OCc2ccc(CO)cc2)O1)N1CCOCC1	inactive: 17.7%	
CC12C=CC(=O)C=C1CCC1C2C(=O)C[C@@]2(C)C1CCC2(O)C(=O)CO (some centres not stated)	inactive: -7.99%	
COc1cc(/C=C2\S/C(=N/S(=O)(=O)Cc3ccccc3)NC2=O)c([N+](=O)[O-])cc1OC	inactive: -9.13%	
CCN1CCc2nc(N)oc2CC1	inactive: 24.7%	
NC(N)=N/N=C/c1ccc(OCc2ccc(Cl)cc2)cc1		active: 15.8 µM
Oc1c(C=C2N=c3ccccc3=N2)sc(=S)n1C1CCCCC1	inactive: 27%	
CCCCn1c(SCC(N)=O)nc2c(sc3ccccc32)c1=O		active: 22.4 µM
C/C=C(/C)C(=O)OC1c2c(ccc3ccc(=O)oc23)OC(C)(C)C1OC(=O)/C(C)=C\C (configuration not stated)	inactive: -18.5%	
O=C(O)CNC(=O)/C(=C/c1cccc([N+](=O)[O-])c1)NC(=O)c1ccco1	inactive: 18%	
CC(C)CC(=O)C(=O)O	inactive: 18.2%	
CSC(=NS(=O)(=O)c1ccc(N)cc1)NS(=O)(=O)c1cccs1	inactive: 13.7%	
C[n+]1cccc(C(=O)O)c1	inactive: 17.6%	
COc1ccc(C2c3c(ncn(CCN4CCOCC4)c3=N)Oc3ccc4ccccc4c32)cc1OC (configuration not stated)	inactive: 12.3%	
O=C(/C=C/c1ccc(O)c(O)c1)O[C@@H]1C[C@](O)(C(=O)O)C[C@@H](O)[C@H]1O	inactive: -1.9%	
COc1ccc(C(=O)N/C(=C/c2ccco2)C(=O)NCc2ccco2)cc1	inactive: 13.2%	
CCCCCCN1C[C@@H](O)[C@H](n2cc(COC(=O)c3ccccc3)nn2)C[C@@H]1c1ccc(Cl)cc1	inactive: 4.21%	
CCOC(=O)[C@@H]1[C@H]2COc3ccccc3[C@@H]2N2C(=O)N(c3ccc(Cl)cc3)C(=O)[C@@]12C	inactive: -0.391%	
O=S(=O)(c1ccc(Cl)cc1)c1snnc1-c1ccccc1		active: 11.6 µM

Compound	activity, negative = less viability	Potency
C[C@@H]1CN([C@H](C)CO)C(=O)CCCn2nncc2CO[C@@H]1CN(C)C(=O)OCc1ccccc1	inactive: -5.08%	
CC(=O)C[C@@H](O)CC(=O)[C@H]1OC(=O)CCCCCCc2ccccc21	inactive: -4.07%	
CN(C)/C=C1\C=C(c2ccccc2)OC1=O	inactive: 13.5%	
OCC[C@H]1C[C@H](O)[C@@H](O)[C@]2(OCCc3ccccc32)O1	inactive: 6.28%	
O=C(O)C1=C[C@@H](c2ccc3c(c2)OCO3)C[C@@H](OCc2ccc(CO)cc2)O1	inactive: 7.08%	
COC(=O)c1ccccc1NC(=O)Cn1c(-c2nonc2N)nc2ccccc21		active: 0.708 µM
CC1(c2ccc(O)cc2)NC(=O)N(c2ccccc2)N1 (configuration not stated)		active: 5.8 µM
COc1cccc(O[C@@H]2O[C@@H]3COC(C)(C)O[C@H]3[C@H](O)[C@H]2NC(C)=O)c1	inactive: 21.4%	
COc1ccc(-n2ncc3c(N4CCN(Cc5ccccc5)CC4)ncnc32)cc1		active: 14.6 µM
COc1ccc(/C=C(/NC(=O)c2ccco2)C(=O)NCc2ccco2)cc1	inactive: 8.36%	
O=[N+]([O-])c1ccc(O)c(C2CCCCC2)c1		active: 14.6 µM
CNc1c2c(nn1C)CCCC2	inactive: 9.29%	
CCN1/C(=C\C(=S)Nc2ccccc2)Sc2ccccc21		active: 14.6 µM
CCN1CCN(Cc2ccc(NC(=O)c3ccc(C)c(NC(=O)c4cccc5[nH]ccc45)c3)cc2C(F)(F)F)CC1	inactive: -14.5%	
C=CC[C@@H](CC(=O)N[C@H](CO)Cc1ccccc1)C(=O)NC[C@@H](OC(=O)[C@@H](CC=C)Cc1ccc(F)cc1)c1ccccc1	inactive: -2.66%	
Cc1cccc(COCC(CC(C)C)N2CCN(C(=O)c3ccc(C(C)(C)C)cc3)CCC2=O)c1 (configuration not stated)	inactive: 0%	
O=C(O)C1C2C=CC3(CN(C4CCCC4)C(=O)C13)O2 (configuration not stated)	inactive: -1.65%	
COc1cccc(/C=N/Nc2ccc(C(=O)O)cc2)c1O		active: 18.4 µM
C[C@]12C=CC(=O)C=C1CC[C@@H]1[C@@H]2C(=O)C[C@@]2(C)[C@H]1CC[C@]2(O)C(=O)CO		inactive
C=CCC[C@@H](Cc1ccc(F)cc1)C(=O)OC[C@@H](Cc1c[nH]c2ccccc12)NC(=O)[C@@H](CC=C)CC(=O)N[C@@H](CO)Cc1ccccc1	inactive: -0.749%	
Cc1ccc(NS(=O)(=O)c2cc(-c3n[nH]c(=O)c4ccccc34)ccc2C)cc1		active: 18.4 µM
COc1cc2nc(N3CCN(C(=O)C4CCCO4)CC3)nc(N)c2cc1OC (configuration not stated)	inactive: -8.97%	
O=C1NC[C@H](CCCCN2C[C@H](Cc3ccccc3)N(CCC3CCCCC3)C(=O)C2=O)N(Cc2ccccc2)C1=O	inactive: 21.1%	

Compound	activity, negative = less viability	Potency
C=CC[C@@H](CC(=O)N(CCO)Cc1ccccc1)C(=O)N[C@H](COC(=O)[C@@H](CC=C)CC(=O)OC(C)(C)C)Cc1ccccc1	inactive: -14%	
CCOC(=O)/C(=N/Nc1ccc(Br)cc1)N1CC(C)OC(C)C1 (configuration not stated)	inactive: -15%	
O=C(COc1ccccc1C(=O)c1cnn(-c2ccccc2)c1)Nc1ccccc1	inactive: -14.5%	
Cc1ccc(C(=O)C[n+]2cc(-c3ccccc3)n3c2CCCCC3)cc1	inactive: -24.6%	
CC(C)(C)OC(=O)C[C@H]1C/C=C\C[C@@H](CC(=O)NCCO)C(=O)NC[C@@H](c2ccccc2)OC1=O	inactive: 1.54%	
CC1=NNC(=O)/C1=C\c1cn(-c2ccccc2)nc1-c1ccc(Cl)cc1		active: 7.31 µM
O=C(CCCN1C(=O)/C(=C/c2ccccc2)SC1=S)Nc1ccc(O)cc1	inactive: -10%	
Fc1ccc(SCCc2ccccn2)cc1	inactive: 11.2%	
O=C(NCCCn1ccnc1)/C(=C/c1cccnc1)NC(=O)c1ccco1	inactive: 10.1%	
Cc1cc(N2CCN(Cc3nc(-c4ccc(Cl)cc4)oc3C)CC2)cc(C)n1		active: 20.6 µM
CN1C2CCC1CC(OC(=O)c1c[nH]c3ccccc13)C2 (configuration not stated)	inactive: 1.16%	
COc1ccc([C@@H]2CC(=O)c3c(O)cc(O)cc3O2)cc1O	inactive: 48.9%	
CC(=O)OCC(=O)[C@@]1(O)CC[C@H]2[C@@H]3CCC4=CC(=O)CC[C@]4(C)[C@H]3[C@@H](O)C[C@@]21C	inactive: -7.23%	
COc1ccc(NC(=O)/C(=C/c2cccs2)NC(=O)c2ccco2)cc1	inactive: 26.6%	
NC(CCc1ccccc1)c1csc(Nc2nccc(C(F)(F)F)n2)n1 (configuration not stated)		active: 16.4 µM
OCC[C@H]1C[C@H](O)[C@@H](O)[C@]2(CCCc3ccccc3O2)O1	inactive: -7.64%	
NC(=O)C1=C[C@H](c2csc3ccccc23)C[C@H](OCc2ccc(CO)cc2)O1	inactive: -12%	
C/C(N)=C(/C#N)C(=O)CSc1nnc(COc2ccccc2Cl)o1	inactive: -1.7%	
Cc1ccc(N2C(=O)N3[C@H]4c5ccccc5OC[C@@H]4[C@@H](c4ccccc4)[C@@]3(C)C2=O)cc1	inactive: -1.94%	
c1ccc2c(c1)cnc1ccccc12	inactive: 3.08%	
O=[N+]([O-])c1ccc2[nH]cc(S(=O)(=O)N3CCN(c4cccc(Cl)c4)CC3)c2c1		active: 20.6 µM
CC(C)C[C@H]1CN([C@@H](Cc2ccccc2)CN2CCC[C@@H]2CN2C(=O)C(=O)NC[C@@H]2Cc2ccc(O)cc2)C(=O)C(=O)N1CC1CCCCC1	inactive: 4.36%	
CCOC(=O)[C@@H]1[C@H]2COc3cc(OC)ccc3[C@@H]2N2C(=O)N(c3ccc(C)cc3)C(=O)[C@]12C	inactive: -0.637%	
